The inconclusive results got no clear call from the source; some entries with a clear call stand among them for comparison. No potency is given beside an inconclusive call; the fits are too rough. Activity calls are given as the source filed them. Calls follow the shape of the dose curve; as a rule, active = well fitted activation curve with a large enough effect in the signal ratio in the repeat runs, with a control signal flat (not every such curve was filed as active); inconclusive = weak or mixed curves; inactive = flat fitted curve, though single readings scatter; the % refers to the signal ratio.
test: qHTS assay for small molecule activators of the heat shock response signaling pathway (AID 743210); details: HeLa HSE-bla reporter, beta-lactamase ratio, 5 h; series mostly up to 62.6 µM;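 as to activation: HeLa cells with beta-lactamase reporter driven by heat shock elements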
In short: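 In HSE-bla HeLa cells, 5 h compound incubation (37 C) precedes addition of LiveBLAzer B/G substrate; after 2.5 h at room temperature, fluorescence intensity indicates reporter induction.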
Potency is read from the fitted curve at half-maximal effect; tags tell the direction and shape of the fitted curve or compound fluorescence and quenching.

SMILES | Potency
CC1c2ccccc2CN1NC(=O)c1ccc(Cl)c(S(N)(=O)=O)c1 (centres undefined) | inactive
S=C([S-])NCCNC(=S)[S-].S=C([S-])NCCNC(=S)[S-].[Mn+2].[Zn+2] | inconclusive [activator, partial curve, poor fit]
O=C(O)c1c(Cl)cccc1Cl | inactive
Nc1ccc2c3c(cccc13)-c1ccccc1-2 | inconclusive [rising, partial curve]
CN1CCC(Nc2ncc3ncnc(Nc4ccc(F)c(Cl)c4)c3n2)CC1 | active: 13.9 µM
Clc1nnc(Cl)c2ccccc12 | inconclusive [falling, partial curve]
Cc1ccc(-n2nc(C(C)(C)C)cc2NC(=O)Nc2ccc(OCCN3CCOCC3)c3ccccc23)cc1 | inactive
CC(C)(C)c1csc(-c2cc3cc(OCc4ccccc4CC(=O)O)ccc3o2)n1 | inconclusive [falling, single point]
CCCCN1CCCC1C(=O)Nc1c(C)cc(C)cc1C (centres undefined) | inconclusive
COC(=O)C1=C(C)NC(C)=C(C(=O)OCCN2CCN(C(c3ccccc3)c3ccccc3)CC2)C1c1cccc([N+](=O)[O-])c1 (centres undefined) | inconclusive
CNC[C@H](O)c1ccc(O)c(O)c1 | inactive
NC(Cc1ccc(F)cc1)C(=O)O (centres undefined) | inconclusive [activator]
CN(CCCN1c2ccccc2CCc2ccccc21)CC(=O)c1ccc(Cl)cc1 | inconclusive
CCCCCCCCCCCSCC(=O)O | inconclusive
